One test concerns the target CTLA-4-His protein (UniProt P16410 37-161). Nature of the test: SPR. For orientation: SPR reads the build-up and loss of mass on a sensor chip optically.
Test [1] has as its target human CTLA-4 expressed on CHO cells (UniProt P16410 37-223). Nature of the test: FACS cell binding.
Test [2] concerns the target T1, biotin-labeled hCTLA-4/Fc protein (UniProt P16410 37-161, biotin label in the FACS competition assays (sites not given)). Put plainly: FACS ligand competition.
In test [3] the target is T1, biotin-labeled hCTLA-4/Fc protein. Nature of the test: FACS ligand competition (B7-1 cells).
Test [4] has the same target. Put plainly: FACS ligand competition (B7-1 cells). The source holds these as a separate data set.

The term Kd denotes the free concentration of one partner at which half of the binding sites on the other are occupied at equilibrium, for simple one-to-one binding. A lower Kd goes with higher affinity. As a reminder, the EC50 is the midpoint of the concentration-response curve. Higher therefore signals a less potent agent. By IC50 is commonly meant the concentration that inhibits the measured activity by half. Higher therefore signals lower potency.

Chain of CTLA-4-His protein (P16410 37-161): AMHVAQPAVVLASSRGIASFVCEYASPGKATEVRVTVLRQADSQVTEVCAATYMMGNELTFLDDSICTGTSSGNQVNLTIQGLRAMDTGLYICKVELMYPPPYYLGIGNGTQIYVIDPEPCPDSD
T1 sequence (P16410 37-161): as above

B1: AS07189TKDVH11 HCAb (Fc fusion)
heavy: EVQLVESGGGLVQPGGSLRLSCAASGDSPSVNYMGWFRQAPGKGREEVSSIYPTGGTFYTDSVKGRFTISRDNAKNTLYLQMNSLRPEDTAVYYCAAGKWGTDYWGQGTLVTVSS[gap - human IgG1 Fc]
B1 came in with a Kd in the test with CTLA-4-His protein of 5.7 nM. Moreover, the EC50 in test [1] was determined as 4.4 nM. In addition, in test [2], the IC50 worked out at 5.1 nM.

B2: AS07189TKDVH11F27 HCAb (Fc fusion)
heavy: EVQLVESGGGLVQPGGSLRLSCAASGFSPSVNYMGWFRQAPGKGREEVSSIYPTGGTFYTDSVKGRFTISRDNAKNTLYLQMNSLRPEDTAVYYCAAGKWGTDYWGQGTLVTVSS[gap - human IgG1 Fc]
B2: the dissociation constant Kd with CTLA-4-His protein was 4.3 nM. In addition, the EC50 in test [1] was 4.1 nM.

B3: A34311 HCAb (Fc fusion)
heavy: QVKLEESGGGLVLPGESLRLSCEASGRTITTITMGWFRQAPGKERQFVASHSWTDNNPYYADSVKGRFIISRDNAGNRVYLQMHSLEPEDTAVYYCAATARRSFVGRQWYTEARQYDYWGQGTQVTVSS[gap - human IgG1 Fc]
In the case of B3, the results for the IC50 in test [2] and in test [3] were 6.9 nM and 6.86 nM, respectively. Further, the EC50 in test [4] was 19.8 nM.

B4: A34311VH11 HCAb (Fc fusion)
heavy: EVQLVESGGGVVQPGRSLRLSCAASGRTITTITMGWFRQAPGKGREFVASHSWTDNNPYYADSVKGRFTISRDNAKNTLYLQMNSLRPEDTAVYYCAATARRSFVGRQWYTEARQYDYWGQGTLVTVSS[gap - human IgG1 Fc]
For the molecule B4, binding with CTLA-4-His protein was put at a Kd of 15 nM. It took 3.1 nM to reach a half-maximal effect in test [1] (EC50). Moreover, the IC50 in test [2] came to 3.5 nM.

B5: AS07014VH11G54 HCAb (Fc fusion)
heavy: EVQLVESGGGLVQPGGSLRLSCAASGYTYSRHCLGWFRQAPGKGREAVSTIDSGGSTSYADSVKGRFTISRDNAKNTLYLQMNSLRPEDTAVYYCAIGPNPRYCSGAPNTRGAEHYFGYWGQGTLVTVSS[gap - human IgG1 Fc]
With B5, in the test with CTLA-4-His protein, binding was put at a Kd of 5.8 nM.

B6: AS07014VH11SGQ HCAb (Fc fusion)
heavy: EVQLVESGGGLVQPGGSLRLSCAASGYTYSRHCLGWFRQAPGKGREAVSTISSGGSTSYADSVKGRFTISRDNAKNTLYLQMNSLRPEDTAVYYCAIGPNPRYCSGAPQTRGAEHYFGYWGQGTLVTVSS[gap - human IgG1 Fc]
For the molecule B6, the Kd in the test with CTLA-4-His protein worked out at 11 nM. Moreover, in test [1], the concentration giving a half-maximal response (EC50) stood at 2.4 nM.

B7: AS07014VH11SGA HCAb (Fc fusion)
heavy: EVQLVESGGGLVQPGGSLRLSCAASGYTYSRHCLGWFRQAPGKGREAVSTISSGGSTSYADSVKGRFTISRDNAKNTLYLQMNSLRPEDTAVYYCAIGPNPRYCSGAPATRGAEHYFGYWGQGTLVTVSS[gap - human IgG1 Fc]
In the test with CTLA-4-His protein, B7 showed a Kd of 11 nM. In test [1], the EC50 was 2.6 nM.

B8: AS07014VH11 HCAb (Fc fusion)
heavy: EVQLVESGGGLVQPGGSLRLSCAASGYTYSRHCLGWFRQAPGKGREAVSTIDSDGSTSYADSVKGRFTISRDNAKNTLYLQMNSLRPEDTAVYYCAIGPNPRYCSGAPNTRGAEHYFGYWGQGTLVTVSS[gap - human IgG1 Fc]
The molecule B8 had a Kd with CTLA-4-His protein of 3.8 nM. In addition, the EC50 in test [1] was 4.3 nM. Besides, the IC50 in test [2] is 4.1 nM.

B9: AS07014VH11SGS HCAb (Fc fusion)
heavy: EVQLVESGGGLVQPGGSLRLSCAASGYTYSRHCLGWFRQAPGKGREAVSTISSGGSTSYADSVKGRFTISRDNAKNTLYLQMNSLRPEDTAVYYCAIGPNPRYCSGAPSTRGAEHYFGYWGQGTLVTVSS[gap - human IgG1 Fc]
Turning to B9, binding with CTLA-4-His protein was put at a Kd of 12 nM.
